# Patent US20180244743A1 (Novo Nordisk, published 2018)
# B1: A21A, B3E, desB27, B29K(N(eps)tetradecanedioyl-4×gGlu), desB30 human insulin (ligand)
# chain 1: not shown
# chain 2: FVEQHLCGSHLVEALYLVCGERGFFYPK
# modifications: B29K (residue 28 of the desB27 chain) acylated on the epsilon nitrogen with tetradecanedioyl-4×gGlu
# notes: also called Ex. No. 8
# B2: A21A, B3E, desB27, B29K(N(eps)hexadecanedioyl-4×gGlu), desB30 human insulin (ligand)
# chain 1: not shown
# chain 2: FVEQHLCGSHLVEALYLVCGERGFFYPK
# modifications: B29K (residue 28 of the desB27 chain) acylated on the epsilon nitrogen with hexadecanedioyl-4×gGlu
# notes: also called Ex. No. 16
# B3: A21A, B3E, desB27, B29K(N(eps)tetradecanedioyl-gGlu-2×OEG), desB30 human insulin (ligand)
# chain 1: not shown
# chain 2: FVEQHLCGSHLVEALYLVCGERGFFYPK
# modifications: B29K (residue 28 of the desB27 chain) acylated on the epsilon nitrogen with tetradecanedioyl-gGlu-2×OEG
# notes: also called Ex. No. 5
# B4: A21A, B3Q, desB27, B29K(N(eps)hexadecanedioyl-gGlu-2×OEG), desB30 human insulin (ligand)
# chain 1: not shown
# chain 2: FVQQHLCGSHLVEALYLVCGERGFFYPK
# modifications: B29K (residue 28 of the desB27 chain) acylated on the epsilon nitrogen with hexadecanedioyl-gGlu-2×OEG
# notes: also called Ex. No. 24
# B5: A8R, B3E, desB27, B29K(N(eps)tetradecanedioyl-gGlu-2×OEG), desB30 human insulin (ligand)
# chain 1: not shown
# chain 2: FVEQHLCGSHLVEALYLVCGERGFFYPK
# modifications: B29K (residue 28 of the desB27 chain) acylated on the epsilon nitrogen with tetradecanedioyl-gGlu-2×OEG
# notes: also called Ex. No. 10
# B6: A21A, B3Q, desB27, B29K(N(eps)tetradecanedioyl-gGlu-2×OEG), desB30 human insulin (ligand)
# chain 1: not shown
# chain 2: FVQQHLCGSHLVEALYLVCGERGFFYPK
# modifications: B29K (residue 28 of the desB27 chain) acylated on the epsilon nitrogen with tetradecanedioyl-gGlu-2×OEG
# notes: also called Ex. No. 17
# B7: A21A, B3Q, desB27, B29K(N(eps)tetradecanedioyl-4×gGlu), desB30 human insulin (ligand)
# chain 1: not shown
# chain 2: FVQQHLCGSHLVEALYLVCGERGFFYPK
# modifications: B29K (residue 28 of the desB27 chain) acylated on the epsilon nitrogen with tetradecanedioyl-4×gGlu
# notes: also called Ex. No. 9
# B8: A21G, B3E, desB27, B29K(N(eps)tetradecanedioyl-gGlu-2×OEG), desB30 human insulin (ligand)
# chain 1: not shown
# chain 2: FVEQHLCGSHLVEALYLVCGERGFFYPK
# modifications: B29K (residue 28 of the desB27 chain) acylated on the epsilon nitrogen with tetradecanedioyl-gGlu-2×OEG
# notes: also called Ex. No. 6
# B9: A21A, B3Q, desB27, B29K(N(eps)hexadecanedioyl-4×gGlu), desB30 human insulin (ligand)
# chain 1: not shown
# chain 2: FVQQHLCGSHLVEALYLVCGERGFFYPK
# modifications: B29K (residue 28 of the desB27 chain) acylated on the epsilon nitrogen with hexadecanedioyl-4×gGlu
# notes: also called Ex. No. 23
# B10: A8H, B3E, desB27, B29K(N(eps)tetradecanedioyl-gGlu-2×OEG), desB30 human insulin (ligand)
# chain 1: not shown
# chain 2: FVEQHLCGSHLVEALYLVCGERGFFYPK
# modifications: B29K (residue 28 of the desB27 chain) acylated on the epsilon nitrogen with tetradecanedioyl-gGlu-2×OEG
# notes: Two-chain, disulfide-linked insulin derivative; also called Ex. No. 1
# B11: A8H, A21G, B3E, desB27, B29K(N(eps)tetradecanedioyl-gGlu-2×OEG), desB30 human insulin (ligand)
# chain 1: not shown
# chain 2: FVEQHLCGSHLVEALYLVCGERGFFYPK
# modifications: B29K (residue 28 of the desB27 chain) acylated on the epsilon nitrogen with tetradecanedioyl-gGlu-2×OEG
# notes: also called Ex. No. 3
# Molecular target: T1, human insulin-like growth factor 1 receptor (human)
# T1 construct: whole, on cells; Full-length receptor in purified BHK plasma membranes, not intact cells; also called hIGF1R; IGF-1R
# Test: SPA competition with [125I-Tyr31]-human IGF-1, membrane-associated hIGF-1R, 0.1% HSA (Ex 26)
# Description: The relative binding affinity for either of the membrane-associated human IR-A, IR-B or IGF-1R is determined by competition binding in a SPA setup. IR assays are performed in duplicate in 96-well OptiPlates (Perkin-Elmer Life Sciences). […] Assays are terminated by centrifugation of the plate at 2000 rpm for 2 minutes and bound radioactivity quantified by counting on a TopCount NXT (Perkin-Elmer Life Sciences).
# IGF-1R assays are conducted essentially as for the IR binding assays except that membrane-associated IGF-1R and 50 pM [¹²⁵I-Tyr31]-human IGF-1 were employed.
row,Binder,relative binding affinity (% rel to HI)
1,B1,10.8 % rel to HI
2,B2,5.1 % rel to HI
3,B3,22.3 % rel to HI
4,B4,11.5 % rel to HI
5,B5,10.4 % rel to HI
6,B6,26.3 % rel to HI
7,B7,13 % rel to HI
8,B8,6.6 % rel to HI
9,B9,4.5 % rel to HI
10,B10,17.6 % rel to HI
11,B11,11.1 % rel to HI
